Data from the BET-seq Pho4 binding data (Le et al. 2018).
The list shows a part of the results. The energies were worked out here from pooled read counts, against the library average; single values are noisy.

Each sequence was assayed against T1, Pho4 (S. cerevisiae) (UniProt P07270) (assay: relative binding free energy (BET-seq); higher = weaker binding). Details: reference: library average.
T1 sequence: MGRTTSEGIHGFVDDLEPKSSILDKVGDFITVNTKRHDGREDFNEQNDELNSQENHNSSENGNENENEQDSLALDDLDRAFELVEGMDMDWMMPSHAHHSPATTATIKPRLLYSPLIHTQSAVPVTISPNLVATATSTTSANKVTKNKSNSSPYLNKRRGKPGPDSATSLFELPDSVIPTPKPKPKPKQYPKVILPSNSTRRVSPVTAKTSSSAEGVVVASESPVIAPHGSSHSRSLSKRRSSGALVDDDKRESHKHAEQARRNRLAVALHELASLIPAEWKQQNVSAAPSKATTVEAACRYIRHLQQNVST

Sequence	relative binding free energy
GTTGACACGTGGTTGC	0.01 kcal/mol
GCGCTCACGTGTGGGA	0.31 kcal/mol
ATGGCCACGTGGCAGG	-0.15 kcal/mol
CGTCGCACGTGTGGAG	-0.09 kcal/mol
AAATGCACGTGAAATG	0.37 kcal/mol
GTTGTCACGTGAAAGG	0.28 kcal/mol
GTGTTCACGTGGACTT	0.32 kcal/mol
GATGACACGTGGTCTT	0.08 kcal/mol
AGAGGCACGTGGGTCA	-0.2 kcal/mol
CTTGACACGTGGTGCA	-0.01 kcal/mol
AGTGGCACGTGCGGTG	-0.1 kcal/mol
AGAGGCACGTGGTTTT	-0.22 kcal/mol
GGGTACACGTGTCGTA	0.19 kcal/mol
ATGTTCACGTGGGGAC	0.17 kcal/mol
GAATTCACGTGGTGGG	0.29 kcal/mol
TTTGACACGTGGTTGA	-0.07 kcal/mol
TGGGACACGTGTCGGC	0.16 kcal/mol
ATCTTCACGTGTTGTC	0.36 kcal/mol
AATTGCACGTGGTGTG	-0.05 kcal/mol
TTTGTCACGTGGAACG	0.1 kcal/mol
GTAATCACGTGAGTTT	0.45 kcal/mol
TGTTGCACGTGTGCAG	0.06 kcal/mol
ATAAGCACGTGAGATG	0.26 kcal/mol
TTTTGCACGTGTCTGG	0.06 kcal/mol
GTATACACGTGAATGT	0.13 kcal/mol
AACTACACGTGGGGGG	-0.09 kcal/mol

Sequence	relative binding free energy
AATTGCACGTGGTGAT	-0.04 kcal/mol
TCTATCACGTGGAGTT	0.08 kcal/mol
GTGGACACGTGGGTGT	-0.04 kcal/mol
TGGGGCACGTGTAGGT	-0.03 kcal/mol
GGCGGCACGTGTTGAT	-0.04 kcal/mol
AGTGGCACGTGGCTGG	-0.18 kcal/mol
TGTTGCACGTGGTGGC	-0.06 kcal/mol
ATTTCCACGTGTTGTT	0.05 kcal/mol
CTTTGCACGTGGTAAA	-0.04 kcal/mol
ACGTGCACGTGGTAGG	-0.1 kcal/mol
TATAGCACGTGAGTTT	0.04 kcal/mol
TCTTGCACGTGGTGAG	-0.2 kcal/mol
GGTCACACGTGAGAGG	0.28 kcal/mol
TGGACCACGTGTTATG	0.02 kcal/mol
TAGAACACGTGGTTGG	-0.02 kcal/mol
TTTAGCACGTGGGCTC	-0.09 kcal/mol
TGTGCCACGTGGCATG	-0.19 kcal/mol
GGGTACACGTGGATTT	0.26 kcal/mol
TTTACCACGTGTAATG	-0.02 kcal/mol
GTGGTCACGTGGTGTA	0.04 kcal/mol
GGTAGCACGTGTTGTA	-0.11 kcal/mol
AATTGCACGTGTTGCT	-0.05 kcal/mol
GAGATCACGTGAAGGG	0.39 kcal/mol
GTTCGCACGTGAAGGT	0.26 kcal/mol
CTGTACACGTGTGGTA	0.06 kcal/mol
GGGTACACGTGATAAG	0.2 kcal/mol

Sequence	relative binding free energy
TAAGTCACGTGCAGGT	-0.04 kcal/mol
TATGGCACGTGAGGGT	0.03 kcal/mol
AGGCGCACGTGTCTGG	0.03 kcal/mol
AGTGTCACGTGGTATT	0.12 kcal/mol
TGTGTCACGTGCCAGT	-0.09 kcal/mol
ATGGGCACGTGCGGGT	-0.26 kcal/mol
GGATTCACGTGTGGTT	0.34 kcal/mol
TAACGCACGTGTTGGT	-0.08 kcal/mol
TGATACACGTGGGCGG	-0.12 kcal/mol
AGTATCACGTGGGCGG	0.04 kcal/mol
GTTAACACGTGTGGGG	0.08 kcal/mol
CTGGGCACGTGAGCTG	0.09 kcal/mol
GTGGGCACGTGACGAA	0.01 kcal/mol
ATAGTCACGTGAGATA	0.26 kcal/mol
CGATGCACGTGGAGGT	-0.09 kcal/mol
AATAACACGTGTTATT	-0.01 kcal/mol
CTGTGCACGTGTAAGG	-0.03 kcal/mol
GGATACACGTGTGAAG	0.25 kcal/mol
TAAATCACGTGGTCAT	0.18 kcal/mol
TTTGTCACGTGCGAGA	0.17 kcal/mol
ATTTTCACGTGCGTAT	0.26 kcal/mol
AGTAGCACGTGGTCTT	-0.13 kcal/mol
CCGGGCACGTGCGGAG	-0.05 kcal/mol
TTTCACACGTGTTTTA	0.02 kcal/mol
CAGCGCACGTGTGTGT	-0.21 kcal/mol
AGTGACACGTGGTCGA	-0.06 kcal/mol

Sequence	relative binding free energy
AGATCCACGTGGTGTT	-0.08 kcal/mol
GTCGTCACGTGGGCAG	-0.09 kcal/mol
AAGTACACGTGTAGGG	0.06 kcal/mol
CTGAACACGTGGGGGG	-0.14 kcal/mol
TGTCGCACGTGAGGGA	0.29 kcal/mol
AGTAGCACGTGATTAT	0.05 kcal/mol
TGTCTCACGTGATGTA	0.24 kcal/mol
GTTGACACGTGGACGG	0.1 kcal/mol
ATGTTCACGTGGATGC	0.26 kcal/mol
TAGGTCACGTGAGCAT	0.3 kcal/mol
TGCGACACGTGGATTG	0.02 kcal/mol
GATAGCACGTGGGTAT	-0.11 kcal/mol
TTTGTCACGTGTATCC	0.1 kcal/mol
TGGGGCACGTGCGGCA	-0.26 kcal/mol
TGCATCACGTGTGGGT	0.02 kcal/mol
TATGTCACGTGTGGGC	0.1 kcal/mol
AGTTACACGTGTTCGG	-0.02 kcal/mol
TTCGTCACGTGTAGGC	-0.01 kcal/mol
AGATGCACGTGTGTCT	-0.13 kcal/mol
GTTTTCACGTGGTTAG	0.38 kcal/mol
GGTGGCACGTGAGAAC	0.25 kcal/mol
TGGGACACGTGGGCCG	-0.07 kcal/mol
TGCTGCACGTGTGGCG	0.01 kcal/mol
TGCTGCACGTGTTGTA	-0.01 kcal/mol
CGTGTCACGTGTCATG	-0.04 kcal/mol
AGTCGCACGTGTAGTT	0.08 kcal/mol

Sequence	relative binding free energy
TTGAGCACGTGTAGGC	0 kcal/mol
ATATACACGTGGGGGA	-0.06 kcal/mol
TAGTTCACGTGTTTCC	0.39 kcal/mol
GGTTCCACGTGGTGGG	0.08 kcal/mol
ACTGACACGTGGTTGT	-0.05 kcal/mol
CAGGCCACGTGTTGGG	0.1 kcal/mol
GTTAGCACGTGAAATA	0.22 kcal/mol
TTAGCCACGTGGCGGT	-0.28 kcal/mol
AGTCTCACGTGGAGCG	0.23 kcal/mol
CTGCGCACGTGGGTGG	-0.26 kcal/mol
CTGTTCACGTGTGTGA	0.26 kcal/mol
CGTGTCACGTGACGTA	0.23 kcal/mol
TTGAACACGTGTTGGT	0.04 kcal/mol
GGAGTCACGTGGGCCA	0.09 kcal/mol
GGTCGCACGTGTGTAG	0.13 kcal/mol
CATGTCACGTGGAGTA	0.04 kcal/mol
GGCGGCACGTGATGAG	0 kcal/mol
AGTTCCACGTGGAGTA	0.1 kcal/mol
TGGTTCACGTGTGCGC	0.26 kcal/mol
GTGGACACGTGTCGAG	0.15 kcal/mol
GTTAGCACGTGGAGTC	0.15 kcal/mol
ATACGCACGTGTGAGT	-0.14 kcal/mol
TGGTGCACGTGGGATC	-0.1 kcal/mol
TGTGTCACGTGAAAGG	0.18 kcal/mol
TTGGTCACGTGTTGTT	0.19 kcal/mol
CATTTCACGTGGGTCA	0.14 kcal/mol

Sequence	relative binding free energy
GTGCACACGTGGGGGC	-0.12 kcal/mol
AGCGCCACGTGGGGTA	-0.22 kcal/mol
GGGGACACGTGTTTAT	0.19 kcal/mol
GGTTTCACGTGAGTGC	0.38 kcal/mol
GTTTACACGTGTCGTT	0.06 kcal/mol
ATTTTCACGTGGCTCT	0.19 kcal/mol
CCGCTCACGTGGGGGG	0 kcal/mol
GGTTGCACGTGACGTG	0.18 kcal/mol
GTTTACACGTGGAGAT	0.23 kcal/mol
AAGGGCACGTGACGTA	-0.03 kcal/mol
CTATACACGTGGGGTA	-0.22 kcal/mol
TATGACACGTGAGAAG	0.22 kcal/mol
TTTCGCACGTGGGAGT	-0.19 kcal/mol
TGTCACACGTGGCGGT	-0.04 kcal/mol
GAATGCACGTGGGGCG	-0.13 kcal/mol
CATGACACGTGGTTTT	0.08 kcal/mol
GAGGGCACGTGCGGGT	-0.12 kcal/mol
TTGAACACGTGTGGCT	0.1 kcal/mol
TGACTCACGTGATTGG	0.35 kcal/mol
TGCAGCACGTGGGAGC	-0.02 kcal/mol
GGTTTCACGTGCTTGC	0.4 kcal/mol
GTAGGCACGTGCATTT	-0.03 kcal/mol
AATGCCACGTGGGTGT	-0.24 kcal/mol
CAATTCACGTGGGGGA	0.12 kcal/mol
TAGGACACGTGGCTGT	-0.2 kcal/mol
AGTGCCACGTGGTGTG	-0.24 kcal/mol

Sequence	relative binding free energy
AGTGGCACGTGCTAAG	-0.24 kcal/mol
CTTCTCACGTGGGTGA	0.23 kcal/mol
CTGAACACGTGTTGGT	0.15 kcal/mol
TCTGTCACGTGTGCTA	0.15 kcal/mol
TATGTCACGTGAAATT	0.34 kcal/mol
GTGTGCACGTGTGACT	0.1 kcal/mol
TGTTGCACGTGTCTAT	-0.07 kcal/mol
GTCCGCACGTGTTTGT	0.02 kcal/mol
GTCGTCACGTGGGGAG	0.07 kcal/mol
AGGGGCACGTGAGAGG	0.11 kcal/mol
AGGGGCACGTGGTTTA	-0.14 kcal/mol
TCGAGCACGTGGCGGT	-0.18 kcal/mol
GTAGTCACGTGGTTGG	0.08 kcal/mol
CGTCTCACGTGGGAGG	0.1 kcal/mol
GTTTTCACGTGGCGGC	0.35 kcal/mol
AGCGTCACGTGAGCGG	0.2 kcal/mol
TGTAACACGTGCGCGG	-0.14 kcal/mol
CTGGCCACGTGATGGG	-0.03 kcal/mol
GTTCACACGTGTTGAG	0.24 kcal/mol
TGGCGCACGTGAATGG	0.07 kcal/mol
GTTGCCACGTGAGAGG	0.13 kcal/mol
TAAATCACGTGGTAGT	0.15 kcal/mol
GGGAGCACGTGAGAAG	0.3 kcal/mol
TGGGCCACGTGTCAGG	-0.25 kcal/mol
GCGGTCACGTGGGGTT	0.08 kcal/mol
TTATGCACGTGAATGC	0.16 kcal/mol

Sequence	relative binding free energy
GGAATCACGTGATGAT	0.37 kcal/mol
AAATACACGTGTTGTA	0.09 kcal/mol
CGTGCCACGTGGGGCG	-0.24 kcal/mol
GGTGGCACGTGTCGCG	-0.08 kcal/mol
GGATTCACGTGCGAAT	0.32 kcal/mol
GTGGGCACGTGGAAAA	0.11 kcal/mol
CGAGGCACGTGTAGTT	0.04 kcal/mol
CTTTTCACGTGCGTGG	0.24 kcal/mol
TACTTCACGTGAGGTA	0.32 kcal/mol
AAGGACACGTGGAGGG	0.07 kcal/mol
GAGCTCACGTGGAGGG	0.21 kcal/mol
AGTATCACGTGAGAGA	0.46 kcal/mol
TGGATCACGTGAGTAT	0.24 kcal/mol
TAGCTCACGTGGATGA	0.29 kcal/mol
TGTACCACGTGGTGTT	-0.1 kcal/mol
GGTTTCACGTGACGCT	0.35 kcal/mol
GGTGACACGTGCTGTG	-0.15 kcal/mol
AAGGACACGTGGAGGC	0.08 kcal/mol
CTGGTCACGTGGATTA	0.1 kcal/mol
ATCGCCACGTGTGTGG	0.04 kcal/mol
TATACCACGTGTGTGA	-0.05 kcal/mol
ACTGTCACGTGAAGTT	0.28 kcal/mol
TATCGCACGTGATGTG	-0.06 kcal/mol
GATTCCACGTGGAGGG	0.2 kcal/mol
AAGGTCACGTGTCGAG	0.15 kcal/mol
CGTTGCACGTGTTAAG	-0.09 kcal/mol

Sequence	relative binding free energy
TTCTTCACGTGTGTCG	0.21 kcal/mol
ATAATCACGTGTTAGT	0.07 kcal/mol
GTTAGCACGTGTGAAG	-0.04 kcal/mol
TGTTCCACGTGTAGAT	0.19 kcal/mol
CTATGCACGTGTTATA	-0.09 kcal/mol
TTATTCACGTGTTACT	0.08 kcal/mol
GGATTCACGTGGGCTG	0.17 kcal/mol
GTAAACACGTGAGCGG	0.33 kcal/mol
ATGAACACGTGTAGTG	-0.09 kcal/mol
CGTGCCACGTGTGGGG	-0.1 kcal/mol
GCATTCACGTGTGGTG	0.37 kcal/mol
TGCGGCACGTGGCGAT	-0.19 kcal/mol
CAGGGCACGTGGTAAT	-0.22 kcal/mol
GATGACACGTGAGTAT	0.37 kcal/mol
CTCGTCACGTGGGTGT	-0.17 kcal/mol
TGGAGCACGTGCGGTA	-0.19 kcal/mol
ATGTGCACGTGGGTGT	-0.14 kcal/mol
GGATGCACGTGGAATA	0.21 kcal/mol
TGTGTCACGTGCGGTT	0.09 kcal/mol
TTAGGCACGTGAGGAA	0.15 kcal/mol
TGTCACACGTGGTATT	0.04 kcal/mol
GGGATCACGTGCTTGT	0.22 kcal/mol
